Results reported in publication PMC6919601, “Identification of Plasmodium dipeptidyl aminopeptidase allosteric inhibitors by high throughput screening” (PLoS ONE, 2019).
The campaign covered roughly 110,000 compounds. About 230 (0.21%) showed an effect of 50% or more. Some of the results follow.

Biological target: DPAP1 (Plasmodium falciparum, UniProt Q8IIJ9)
Experiment: primary screen, percent inhibition; read by cleavage of a fluorogenic dipeptide substrate; higher = more effect of the substance
Set-up: species or system P. falciparum D10 trophozoite lysates; single well
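Further: 30 min substrate incubation versus DMSO and 10 µM JCP410 controls.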

DPAP1, sequence (Q8IIJ9 whole entry, looked up): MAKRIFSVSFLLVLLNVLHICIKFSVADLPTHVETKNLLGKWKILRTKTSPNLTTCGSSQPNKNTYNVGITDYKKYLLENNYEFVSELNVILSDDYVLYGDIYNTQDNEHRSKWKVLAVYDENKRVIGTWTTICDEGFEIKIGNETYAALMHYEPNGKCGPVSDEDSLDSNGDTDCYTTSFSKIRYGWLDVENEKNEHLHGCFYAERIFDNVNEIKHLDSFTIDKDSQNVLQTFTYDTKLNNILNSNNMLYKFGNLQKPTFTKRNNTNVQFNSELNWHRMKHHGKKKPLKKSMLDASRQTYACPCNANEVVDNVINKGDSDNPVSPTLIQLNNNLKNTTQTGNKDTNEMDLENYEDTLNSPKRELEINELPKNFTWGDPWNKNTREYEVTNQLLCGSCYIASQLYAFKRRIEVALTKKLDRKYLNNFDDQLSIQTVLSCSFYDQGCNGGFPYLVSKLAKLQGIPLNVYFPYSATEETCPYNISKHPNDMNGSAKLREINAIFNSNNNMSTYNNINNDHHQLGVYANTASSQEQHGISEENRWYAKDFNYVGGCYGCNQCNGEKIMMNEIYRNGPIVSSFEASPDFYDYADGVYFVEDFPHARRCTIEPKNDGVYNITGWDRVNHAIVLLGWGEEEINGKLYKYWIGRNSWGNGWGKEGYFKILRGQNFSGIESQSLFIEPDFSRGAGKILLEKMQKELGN

| SMILES | % Inhibition @ 10 uM [%] |
| --- | --- |
| COc1ccc(Cl)cc1NC(=O)c1ccccc1Br | -3.26 |
| CCc1ccc(S(=O)(=O)c2nnn3c2nc(O)c2ccccc23)cc1 | 11.3 |
| C=CCOc1c(Br)cc(/C=C2/C(=O)ON=C2C)cc1OC | 1.31 |
| O=C(NCc1cccnc1)C1CCN(S(=O)(=O)N2CCCC2)CC1 | -1.21 |
| O=S(=O)(c1ccccc1)N1CCSC1c1ccc(Cl)cc1 (centres unmarked) | -1.82 |
| CC(C)c1nnc(NC(=O)Cc2ccccc2)s1 | -0.836 |
| Cc1cc(N2C(=O)C(O)=C(C(=O)c3cccs3)C2c2ccc(C(C)C)cc2)no1 (centres unmarked) | 19.4 |
| Cc1ccc(C)c(S(=O)(=O)Nc2ccc(F)c(Cl)c2)c1 | 1.8 |
| Cc1ccc(O)c(/C=N/c2c(C)nn(C)c2C)c1 | 7.26 |
| CCOc1ccc(CNCc2c(C(=O)O)c(C)n(Cc3cccc(C)c3)c2C)cc1 | -5.49 |
| CC(=O)c1ccc(C(=O)N(CCN(C)C)c2nc3cc4c(cc3s2)OCCO4)cc1 | 6.78 |
| CN(C)CCN(C(=O)C1COc2ccccc2O1)c1nc2ccc(Cl)cc2s1 (centres unmarked) | 0.95 |
| O=C(c1ccc(S(=O)(=O)N2CCOCC2)cc1)N1CCN(c2ccccc2F)CC1 | -1.22 |
| CC(C)(C)NCC(=O)Nc1c2c(nc3c1CCC3)CCC2 | 1.8 |
| O=[N+]([O-])c1ccccc1S(=O)(=O)NCCOc1ccc(Cl)cc1 | 0.00784 |
| CCN(CC)CCCOc1ccccc1C(C)(C)C | -3.67 |
| COc1ccc(-c2cs/c(=N\c3cccc(C(F)(F)F)c3)n2CCCO)cc1F | 0.993 |
| NC(=O)C1CCN(Cc2nc(N)nc(Nc3ccccc3)n2)CC1 | 3.04 |
| CN1C2=C(C(=O)CCC2)C(c2ccccc2OCc2ccccc2F)C2=C1CCCC2=O | 0.147 |
| CCOC(=O)/C(C#N)=C/c1c(Oc2ccc(CC)cc2)nc2ccccn2c1=O | 3.12 |
| COc1cc(-c2nc3c(=O)n(C)c(=O)n(C)c3[nH]2)ccc1O | -1.52 |
| Cc1ccc(S(=O)(=O)c2nc(-c3cccs3)oc2S(=O)(=O)CC(C)C)cc1 | -1.22 |

| SMILES | % Inhibition @ 10 uM [%] |
| --- | --- |
| CCOCCCNC(=O)C(NC(=O)CNC(C)=O)c1ccc(C)cc1 (centres unmarked) | 1.26 |
| O=C1NC(c2ccc(Cl)cc2Cl)Nc2c1sc(=S)n2-c1ccccc1 (centres unmarked) | -3.14 |
| Cc1ccc2nc3sc(C(=O)O)cc3cc2c1 | 7.04 |
| CCc1nnc(NC(=O)c2c(C)nn(-c3ccc(F)cc3)c2-n2cccc2)s1 | -1.95 |
| COc1ccccc1OCCCN1CCOCC1 | 0.815 |
| CC(C)NC(=O)CN1Cc2ccccc2C1=O | -1.86 |
| Cc1cccc(-c2nc(CN3CCCC(C(=O)NC4CCCc5ccccc54)C3)c(C)o2)c1 (centres unmarked) | 0.689 |
| Cn1c2ccccc2c2cnn(CC(=O)NCC3CCCO3)c(=O)c21 (centres unmarked) | -7.36 |
| CCOc1cccc(-c2cc(C(=O)Nc3ccc(NC(C)=O)cc3)c3ccccc3n2)c1 | -5.26 |
| CCc1nn(CC(=O)N2CCC(C)CC2)c(=O)c2cc3sccc3n12 | 1.8 |
| C=CCNC(=O)C1CC=CCC1C(=O)Nc1ccccc1[N+](=O)[O-] (centres unmarked) | -1.91 |
| O=C(CCN1CCCCC1)Nc1ccc(F)cc1 | 2.51 |
| N#CC1=C(N)Oc2c(sc3ccccc23)C1c1ccc(Br)o1 (centres unmarked) | -9.79 |
| CCOc1ccc(N2C(=O)/C(=C/c3cc(Cl)ccc3O)C(=O)NC2=S)cc1 | 5.2 |
| Cc1ccc(OCC(=O)Nc2ccc(S(=O)(=O)N3CCCC3)cc2)c(C)c1 | -3.34 |
| CCN1CCCC1CNC(=O)Cn1nc(C)n2c(cc3cc(C)ccc32)c1=O (centres unmarked) | 6.35 |
| O=C(NCCCN1CCCC1=O)c1ccc2c(c1)ncn2C1CCCCC1 | -5.43 |
| c1ccc(CSc2nn3cnnc3s2)cc1 | -3.53 |
| Cc1ccccc1COc1ccc(/C=C2\C(=N)N3N=C(N4CCOCC4)SC3=NC2=O)cc1 | 0.0579 |
| Cc1onc(-c2ccccc2Cl)c1C(=O)N1CCc2ccccc2C1 | 3.44 |
| N#CCC(=O)NCc1cccc(Cl)c1 | -1.99 |
| CCCN(CCC)CCCNC(=O)C1c2ccccc2C(=O)N2CCc3ccccc3C12 (centres unmarked) | 7.38 |

| SMILES | % Inhibition @ 10 uM [%] |
| --- | --- |
| CCCC[C@H](NC(=O)[C@H](Cc1ccccc1)NC(C)=O)C(=O)c1nc2ccccc2o1 | -1.83 |
| Oc1oc(-c2cccc3ccccc23)nc1/C=N/C1CCCCC1 | 3.74 |
| CCOC(=O)N1CCN(c2c(N3CCN(C)CC3)c(=O)c2=O)CC1 | 1.93 |
| CC1=CC(C)C2(COC(c3cccnc3)OC2)C(C)C1 (centres unmarked) | -1.77 |
| Cc1ccccc1-c1nc(CN2CCC(C(=O)NCCCOC(C)C)CC2)c(C)o1 | -2.85 |
| Cc1ccc(O)c(C2=Nc3ccccc3C2(C)C)c1 | -3.98 |
| CC(CCc1ccccc1)NC(=O)c1cccnc1 (centres unmarked) | 1.83 |
| COCCNC(=O)CCc1nnc2ccc(N3CCC(C)CC3)nn12 | -4.02 |
| CC1(C)CC(=O)C(/C=N/Cc2cccs2)=C(O)C1 | -6.27 |
| CCCC1=C(C(=O)OCC)C(c2ccc(F)cc2)NC(=O)N1 (centres unmarked) | 4.88 |
| COc1cc(OC)c2c(C)c(CC(=O)N3CCCC3)c(=O)oc2c1 | 4.13 |
| N#Cc1c(NC(=O)c2cccc([N+](=O)[O-])c2)sc2c1CCCC2 | 4.26 |
| COc1ccc(CN2CCN(Cc3ccc4c(c3)OCO4)CC2)cc1 | -6.4 |
| CC(C(=O)C12CC3CC(CC(C3)C1)C2)N(C)C (centres unmarked) | -0.615 |
| O=C(Cc1csc2ccccc12)NCc1ccc2c(c1)OCO2 | -1.75 |
| COc1ccc(CNCc2cccc(Cl)c2)cc1OC | 4.59 |
| OC1CCN(Cc2ccc(Cl)c(Cl)c2)C1 (centres unmarked) | -5.26 |
| CCC(C)NC(=O)C1CCCN(S(=O)(=O)c2c(C)noc2/C=C/N(C)C)C1 (centres unmarked) | -6.52 |
| Cc1ccc2nc3c(O)n(CC(=O)NC4CCCC(C)C4C)ncc-3c2c1 (centres unmarked) | 4.58 |
| CCOc1ccc(CNS(=O)(=O)c2csc(C(=O)N3CCCC3)c2)cc1OC | -6.86 |
| OC1(/C=C/C2(O)CCCCC2)CCCCC1 | -1.29 |
